The supplement of paper PMC10338343
± gives the standard deviation. This is a selection; strong and weak results do not stand in their true shares.

The sequences below were run on MIWI (PIWIL1) piRISC loaded with piRNA #1 (30 nt) (assay: pre-steady-state target cleavage rate (min^-1); MIWI and MILI are mouse PIWI proteins and EfPiwi is from a freshwater sponge; tags in brackets are library labels; higher = faster piRNA-guided slicing of the target). Conditions: guide: piRNA #1 5'p-UGAGGUAGUAGGUUGUAUAGUAUCCAGAGG; auxiliary factor: 500 nM mouse GTSF1.
How it was run: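 Sequencing of uncleaved targets, normalised to depth and to weakly complementary targets, was the readout of this Cleave-'n-Seq assay. A transcribed, DNA-blocked target RNA library (0.1 nM) was mixed with 1 nM active affinity-purified piRISC carrying one synthetic guide, with or without 500 nM GTSF1 partner protein, in HEPES–potassium acetate buffer at 33 °C for 0–8 or 0–960 min. Three trials were pooled, k3 was capped at 0.0001 min^-1, and a burst-and-steady-state fit gave the pre-steady-state cleavage rate.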

Sequence | pre-steady-state target cleavage rate
GGAGUGCUUACUAUACAACCUACUACCUCA | 1.53 ± 0.11
GGAGUCGAUACUAUAGAACCUACUACCUCA | 0.295 ± 0.035
GGAGACCAUACUAUUCAACCUACAACCUCA | 0.739 ± 0.077
GGAGACGAUACUAUAGAACCUACUACCUGA | 0.296 ± 0.063
GCUCUGGUACUAUACAACCUACUACCUCA | 1.67 ± 0.09
GGAGACCUAACUAUUCAUCCUACUACCUCA | 0.292 ± 0.043
GGAGAGGAUACUAUAGAACCAACUACCUCA | 0.0447 ± 0.006
GGAGACCAUACUAUACAACCUACUAGGAGA [g6:g23:cont:t1A] | 0.0655 ± 0.019
CCUCGUGGAUACUAUACAACCUACUACCUCA | 2.17 ± 0.16
GGACUGGAUACUUUACAACCUACUACCACA | 0.205 ± 0.025
GGACUCGAUACUAUACUACCUACUACCUCA | 1.3 ± 0.11
GGAGACCUAUCUAUACAACCUACUAUCCUCA | 0.791 ± 0.087
GGAGAGGAUACUAUACCACCUACUACCUCA | 1.26 ± 0.052
GGAGACCAUACAAUACAACCUACUACCACA | 0.654 ± 0.1
GGAGACCAUACAAUACAACCUACUACCUCA | 0.972 ± 0.095
GGAGACGAUACUAUACAACCAUCUACCUCA | 0.0561 ± 0.011
GCUCUGGAUACUUUUCAACCUACUACCUCA | 1.28 ± 0.084
GGAGUGGAUACAUACAACCUACUACCUCA | 1.15 ± 0.091
GGUCUCGAUACUAUACAACCUUCUACCUCA | 0.707 ± 0.036
GGACUGGAUACUAUACAAGCAACUACCUCA | 0.0227 ± 0.0035

Sequence | pre-steady-state target cleavage rate
GGAGAGGAUACUAUACAACGUACUACCACA | 0.529 ± 0.055
GGACUGGUUUCUAUACAACCUACUACCUCA | 1.32 ± 0.15
GCUCUGGACUACUAUACAACCUACUACCUCA | 1.45 ± 0.1
GGAGAGGAUACUUAUACAACCUACUACCUCA | 1.27 ± 0.069
GGACUGGUUACUAUACAACCUAGUACCUCA | 0.432 ± 0.062
CCUCUGGAUUGAAUACAACCUACUACCUCA | 0.962 ± 0.067
GGUCUGGAUACUAUAGAACCUACUACCUGA | 0.0516 ± 0.014
GGAGUGGAUACUAUACAACCUGACUACCUCA | 0.00293 ± 0.0026
GGACUGGAUACUAUACAACCAACUACCACA | 0.0843 ± 0.012
GGAGACCUUACUAUACAACCAACUACCUCA | 0.0758 ± 0.0091
GGAGACCUAACUAUACAACCUACUACCUUA | 1.08 ± 0.12
GGAGACCUAACUAUACAAGCUACUACGUCA | 0.426 ± 0.034
GGACUGGAUACAAUACAACCUAGUACCUCA | 0.518 ± 0.059
GGAGUGGAUACUAUACAAGGUACUACCUCA | 0.266 ± 0.021
GGAGAGGAUACUAUACAACCUACUACCAGA | 0.155 ± 0.019
GGAGACCUAUGAUAUGUUCCUUGUACCUCA | < 0.0001
CCUCUGGAUACUAUACAACCAUACUACCUCA | 0.0107 ± 0.0043
GGAGAGGAUACAAUACAACCAACUACCUCA | 0.101 ± 0.0091
GGUGUGGAUACUAAACAACCUACUACCUCA | 1.68 ± 0.094
